# Experimental data from ChEMBL document CHEMBL4888484, “Replenishing the malaria drug discovery pipeline: Screening and hit evaluation of the MMV Hit Generation Library 1 (HGL1) against asexual blood stage Plasmodium falciparum ,using a nano luciferase reporter read-out” (2022).
# Out of some 4,800 compounds screened, about 420 (8.8%) showed an effect of 50% or more. This is one part of the list.
# System: Plasmodium falciparum
# Test: Confirmatory screen in NF54 nanoGlo assay, in single point, at 2uM, 72h
# Assay type: functional, Erythrocyte
# Details: timepoint 72 hour
row,SMILES,% Inhibition
1,C[C@@H](CNc1ncc(C(=O)N2CCOCC2)cc1Cl)c1nncn1C,-12%
2,O=C(NCc1ccccc1F)C1CCN(c2cncnc2N2CCCC2)CC1,33%
3,Cc1cnc(CC[C@H]2CCCN2C(=O)CCn2ccnc2)n1C,-2%
4,Fc1cccc(Br)c1C1CC(c2cccnc2)Nc2ncnn21 (stereo not given),-9%
5,O=S(=O)(c1ccccc1)c1cnc2c(Br)c(-c3ccccc3)nn2c1-c1ccccc1,-17%
6,CCC[C@H](C)c1cc(NS(=O)(=O)c2cnn(CC)c2)[nH]n1,5%
7,COc1ccccc1-c1n[nH]cc1CN1CC(=O)NCC12CCCC2,-8%
8,CCCOc1cccc2c(NC3CCN(CCOC)CC3)ccnc12,22%
9,CN1c2ccccc2C(=O)N[C@@H]1c1ccccc1OCc1ccccc1,-3%
10,O=C(OCc1nccn1Cc1ccccc1)c1cccc2cc[nH]c12,3%
11,CC(C)(C)OC(=O)N1C[C@@H](O)CC1=O,-11%
12,CCOC(=O)N1CCc2c(nc(-c3ccc(F)cc3)n(CC(=O)Nc3c(C)cc(C)cc3C)c2=O)C1,6%
13,Cc1ccc(-c2nn3nc(COc4cccc5c4OC(C)(C)C5)nc3s2)cc1,2%
14,Cc1ccc(O)c(CNCC2(c3ccccc3Cl)CCOCC2)n1,99%
15,CCCn1c(C)cnc1C1CN(S(=O)(=O)c2ccc(C)c(F)c2)C1,-6%
16,CS(=O)(=O)CC1(CON=C(N)c2cccnc2)CC1,1%
17,C=CCNC(=O)CN1CCN(CC(=O)N(Cc2ccccc2)[C@@H](C)C2CC2)CC1,3%
18,Cc1cnc(Cc2ccccc2)n1CCNC(=O)c1cnn(C)c1,0%
19,COc1cc(N2CCn3c(nc4ccccc43)C2)ccc1NC(=O)c1ccc(C)cc1,4%
20,Cc1ccc2nc(C3CC3)cc(C(=O)N3C[C@@H](O)C[C@H]3CO)c2c1,-4%
21,Cn1cc(-c2noc(-c3cccc(C#N)c3)n2)ccc1=O,3%
22,CCOC(=O)c1nc(-c2ccc(N3CCCCC3)nc2)no1,6%
23,CCCN(Cc1nnc(-c2ccccc2)o1)S(=O)(=O)c1cnn(C(F)F)c1C,-10%
24,CC(C)(C(=O)Nc1nccs1)c1cccnc1,-2%
25,Cc1ccc(C)n1-c1ccc(Cl)c(C(=O)NC[C@H]2COCCO2)c1,-4%

row,SMILES,% Inhibition
1,Cc1cccc(C)c1OCC(=O)Nc1ccc(-c2nc3cc4ccccc4cc3[nH]2)cc1,10%
2,O=C(NCCc1ccccc1)N1CC[C@@]2(C1)Nc1cccnc1N=C2NC1CCCC1,-8%
3,CCOc1ccc(-n2c(CN3CCN(C(=O)c4ccco4)CC3)nc3ccccc3c2=O)cc1,3%
4,C#CCNC(=O)[C@H](C#N)c1nc(C)c(C)s1,3%
5,CCOc1ccc(NC(=O)N(Cc2cn(C)c3ccccc23)C2CCCCC2)cc1,-6%
6,O=C(CNC(=O)COc1ccccc1)NCC1(O)CCCCCC1,-5%
7,CC(C)N1CC[C@H](c2nnc3n2CCN(S(=O)(=O)c2ccccc2Cl)C3)C1,-3%
8,Cc1ccc(Cn2ccn3nc(-c4ccc5c(c4)OCO5)cc3c2=O)cc1C,-9%
9,Cc1nc2cc(OCc3ccccc3)ccc2n1C,2%
10,COc1ccc2cc3n(c2c1)C[C@](C(=O)NC1CCCCCC1)(c1ccccc1)N(Cc1cccc(C)c1)C3=O,-15%
11,CCC(C)(C)NCC(=O)Nc1cc(F)ccc1F,-13%
12,CN(C)S(=O)(=O)N(CCN1CCCC1)[C@H]1CCN(C(=O)CCCc2ccccc2)C1,1%
13,O=C(Nc1ccccc1)c1cc(C(=O)Nc2ccccc2)cc(C(=O)Nc2ccccc2C(=O)O)c1,15%
14,COc1cccc(N2CCN(C3=NC(=O)[C@@H](C#N)C4(CCCC4)N3)CC2)c1,2%
15,CN1CCN(Cc2cc3cc4c(cc3nc2-c2ccc(Cl)cc2)OCO4)CC1=O,53%
16,COC(=O)Nc1ccc(Cl)cc1F,4%
17,COc1ccc(CN(c2ccccc2)S(=O)(=O)c2ccc3nncn3c2)cc1,-3%
18,CCc1ccc2c(c1)c(-c1ccc(Cl)cc1)c(C(=O)N1CCN(c3cccc(Cl)c3)CC1)n2C,-17%
19,Cc1cccc(NC(=O)CS(=O)(=O)Cc2cc(Cl)cc3c2OCOC3)c1C,-10%
20,Cc1cccnc1C(=O)N1CC(n2cnnc2[C@@H]2CCCO2)C1,-2%
21,O=C(Nc1ccccc1)C1=NN(CC(=O)N2CCCCC2)C(=O)CC1,-9%
22,Cc1ccccc1NC(=O)c1cnn2c3c(cnc12)CCCCCC3,2%
23,Cc1nn(C)cc1S(=O)(=O)N1CCC[C@@H]1CCc1ccccn1,-12%
24,COc1ccc(CN2C(=O)c3cc4ccc(OC)cc4n3C[C@]2(C(=O)NC2CCCCCCC2)c2ccccc2)cc1,-8%
25,COc1cccc(N2CCN(C(=O)c3cn4cc(-c5ccc(Cl)cc5)ccc4n3)CC2)c1,0%

row,SMILES,% Inhibition
1,O=C(Nc1ccsc1C(=O)NC1CCCCC1)c1cnccn1,4%
2,Cc1cc(C(=O)NCCCS(N)(=O)=O)c(Cl)cc1F,-10%
3,O=c1[nH]c2cc(Cl)c(S(=O)(=O)Cl)cc2[nH]1,1%
4,NC(=O)c1cccc(CNc2ccc(-n3cncn3)c(Cl)c2)c1,-4%
5,O=C(NC1CCCNC1=O)NC1CCCC1c1ccc(Cl)cc1 (stereo not given),3%
6,CC(C)c1ccc(N2CCN(C(=O)c3ccc(C(F)(F)F)cc3)[C@@H](C)C2=O)cc1,-1%
7,Cc1nc2c(c(=O)[nH]1)NC(=O)[C@H](CC(C)C)N2,-6%
8,CCCCCNC(=O)NCc1ncoc1C,-1%
9,CC(C)(C)OC(=O)N1C2CCC1CC(CC(=O)NC1CCCC1)C2 (stereo not given),8%
10,N#Cc1cc(N2CCc3ccccc3C2)nc2ccccc12,2%
11,Cc1cc(C(=O)Nc2cc(Br)c(=O)n(C)c2)no1,-14%
12,CN(Cc1nccn1C)C(=O)c1cc2ccccc2[nH]1,5%
13,C[C@@H](C1CCCC1)N1C(=O)NC(CC(F)(F)F)C1=O (stereo not given in full),-8%
14,O=C(O)[C@@H]1CN(S(=O)(=O)c2cc3ccccc3o2)c2ccccc21,3%
15,CCCn1c(C)cnc1C1CN(S(=O)(=O)c2cc(Cl)ccc2Cl)C1,-7%
16,CCCN(CCC)C(=O)CCC(=O)N[C@]1(C(F)(F)F)CCc2ccccc21,15%
17,C#CC[C@H](OC(=O)c1nc(-c2cnn(C)c2)oc1C)C(C)(C)C,-10%
18,CCc1cc(O)nc(CN2CCCC2C(O)C(F)(F)F)n1 (stereo not given),-6%
19,O=S(=O)(N[C@@H](Cn1cnc2ccccc21)c1ccc(F)cc1)c1cc(F)c(F)cc1F,-2%
20,C[C@@H](CNC(=O)c1ccc(Cl)c(-n2cnc3cccnc32)c1)c1ccccc1,-1%
21,Cc1ccc(S(=O)(=O)c2ccc3c(c2)Oc2ccccc2N3)cc1,-10%
22,Cc1c(C)c2ccc(NC(=O)c3cc4ccccc4o3)cc2[nH]c1=O,74%
23,COc1ccc(OC)c([C@H](C)NC(=O)N2CCS(=O)(=O)CC2)c1,-3%
24,Cc1c([C@@H](NCc2ncccc2O)C(C)C)oc2ccccc12,99%
25,O=C(CCn1ccc2cc(S(=O)(=O)N3CCCCC3)ccc21)N1CCN(c2ccccc2F)CC1,-3%

row,SMILES,% Inhibition
1,CC1(C)COC(=O)[C@H]1OCN1CCCC1=O,-3%
2,Cc1cc(F)c(C(=O)Nc2nc(-c3cnn(C)c3)cs2)cc1F,-9%
3,CC[C@H]1Cn2c(C(=O)NCc3cccs3)cc3c(Cl)ccc(c32)O1,-4%
4,CN(Cc1ccccc1)C(=O)C[C@H]1CCN(C(=O)NC2CCCCC2)C1,-5%
5,O=C(c1cc(Br)c(C(=O)N2CCCC2)cc1Br)N1CCCC1,-13%
6,C=Cn1cc[n+](CC(=O)c2ccc(-c3ccccc3)cc2)c1,48%
7,Clc1ccc(Cl)c(-c2ccc(CNn3cnnc3)o2)c1,1%
8,O=C(C[C@H]1CCc2nnc(C3CCOCC3)n2CC1)Nc1ccc(Cl)cc1F,-8%
9,O=C(Nc1ccccc1)Nc1nc2c(s1)CCCCCCCCCC2,-6%
10,Cc1ccc(NC(=O)CC2CC3CCC2C3)c(Br)c1 (stereo not given),7%
11,C[C@H]1CCCCN1C(=O)CN1CCN(c2nccn3cnnc23)CC1,-5%
12,O=C(CCCc1ccccc1)Nc1cc(C2CC2)nn1-c1nc(-c2ccccc2)cc(=O)[nH]1,48%
13,Cn1c2cn(-c3ccc(F)cc3)c(-c3ccccc3)c2c(=O)n1-c1ccccc1,-1%
14,CN1CCC(NC(=O)c2cnc(-c3ccc4c(c3)OCO4)nc2Nc2ccc(F)cc2)CC1,19%
15,CS(=O)(=O)N1CCc2cc(S(=O)(=O)N3CCC(c4ccccc4)CC3)ccc21,0%
16,Cc1cc(OC(=O)[C@H]2CC(=O)N(c3ccc4ccccc4c3)C2)c(C(C)C)cc1NC1=NS(=O)(=O)c2ccccc21,-2%
17,CCNc1ccnc(NCc2nc(-c3cccc(F)c3)c(-c3ccccn3)[nH]2)n1,30%
18,Cc1ncccc1C(=O)Nc1cccc(Oc2cccnn2)c1,1%
19,O=C(NCc1ccco1)c1cc2c(Cl)ccc3c2n1CCO3,-1%
20,O=C(NCc1c(O)ccc2c1CCCC2)c1ccc2nncn2c1,-18%
21,COc1ccc(C(=O)n2nc(Nc3ccccc3Cl)cc2Nc2ccccc2Cl)cc1,7%
22,COc1ccc(S(=O)(=O)N2CCC(C)(C(=O)NCc3ccc4c(c3)OCO4)CC2)cc1OC,0%
23,CCN(C)CCN(CC)C(=O)CCc1cc2c(n1-c1ccc(OC)cc1)-c1ccccc1CC2,15%
24,COc1ccc([C@H](CNC(=O)c2ccccc2)N2CCC(c3ccccc3)=N2)cc1,-3%
25,CN1CCN(c2nc(-c3cccc(C(F)(F)F)c3)nc3c2cnn3Cc2ccccc2)CC1,-4%
